{"source": "patent US20220193124A1", "about": "“Therapeutic Agent for Flavivirus Infection” (NEOPHARMA JAPAN CO., LTD., priority 2019, published 2022)", "test_system": "cells infected with the Japanese encephalitis virus Nakayama strain (JEV Nakayama)", "assay": "Cell toxicity in Japanese encephalitis virus infected cells, optical microscope observation", "conditions": "0.2 mM; treated for 2 days; FIG. 18"}
{"compound": "Cl.NCC(=O)CCC(=O)O", "note": "[5-ALA, 5-aminolevulinic acid hydrochloride]", "values": [{"measurement": "cell toxicity (detachment of cells)", "value": "did not show detachment"}]}
